{"source": "PubChem BioAssay (NCATS)", "note": "The inconclusive results got no clear call from the source; some entries with a clear call stand among them for comparison. Potencies of inconclusive entries are left out as doubtful fits. Activity calls are given as the source filed them. Calls follow the shape of the dose curve; as a rule, active = well fitted inhibition curve with a large enough effect; inconclusive = small, poorly fitted or top-dose-only effect; inactive = flat fitted curve, though single readings scatter. Potency is read from the fitted curve at half-maximal effect; tags tell the direction and shape of the fitted curve."}
{"biological_target": "Phospholipid hydroperoxide glutathione peroxidase GPX4 (Homo sapiens) (UniProt P36969)", "sequence (P36969 whole entry, looked up)": "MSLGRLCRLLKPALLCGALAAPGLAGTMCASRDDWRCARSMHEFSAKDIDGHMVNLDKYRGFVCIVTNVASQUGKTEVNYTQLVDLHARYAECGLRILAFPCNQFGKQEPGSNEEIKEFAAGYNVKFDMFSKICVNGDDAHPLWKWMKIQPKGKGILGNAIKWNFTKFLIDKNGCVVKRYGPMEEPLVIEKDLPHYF", "assay": "Primary qHTS Assay for Inhibitors of Recombinant Selenoprotein Glutathione Peroxidase 4 (GPX4) (AID 1845192); also: nearly all actives have a fitted effect of over 65% in size", "conditions": "recombinant GPX4, GR-coupled NADPH fluorescence, 15 min; series mostly up to 50 µM", "how_it_was_run": "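GR-coupled readout: 100 nM GR, 1 mM GSH, 0.5 mM NADPH; NADPH fluorescence (ex 340/em 450 nm) read at t=0 and after 15 min RT. GPX4 200 nM, preincubated 30 min with compound; substrate 0.5 mM CHP.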"}
{"smiles": "CN1CCN(CCC=C2c3ccccc3Sc3ccc(S(=O)(=O)N(C)C)cc32)CC1", "Potency": "inconclusive [inhibitor, partial curve]"}
{"smiles": "CO[C@H](C(=O)[C@@H](O)[C@@H](C)O)C1Cc2cc3cc(O[C@H]4C[C@@H](O[C@H]5C[C@@H](O)[C@H](O)[C@@H](C)O5)[C@@H](O)[C@@H](C)O4)c(C)c(O)c3c(O)c2C(=O)[C@H]1O[C@H]1C[C@@H](O[C@H]2C[C@@H](O[C@H]3C[C@](C)(O)[C@H](O)[C@@H](C)O3)[C@H](O)[C@@H](C)O2)[C@H](O)[C@@H](C)O1", "note": "(some centres undefined)", "Potency": "inconclusive [inhibitor, single point]"}
{"smiles": "COc1ccc(C2C(=O)c3ccccc3C2=O)cc1", "Potency": "inactive"}
{"smiles": "C#C[C@]1(O)CC[C@H]2[C@@H]3CCC4=C/C(=N/O)CC[C@@H]4[C@H]3CC[C@@]21CC", "Potency": "inconclusive [inhibitor, partial curve]"}
{"smiles": "CN(C)C(=S)SC(=S)N(C)C", "Potency": "inconclusive [inhibitor, single point]"}
{"smiles": "Cc1c(O)cccc1C(=O)N[C@@H](CSc1ccccc1)[C@H](O)CN1C[C@H]2CCCC[C@H]2C[C@H]1C(=O)NC(C)(C)C", "Potency": "inconclusive [inhibitor, partial curve, poor fit]"}
{"smiles": "CN1CCc2c(c3ccccc3n2Cc2ccccc2)C1", "Potency": "inconclusive [inhibitor, partial curve, poor fit]"}
{"smiles": "C[C@@]12C(=O)OC(=O)[C@]1(C)C1CCC2O1", "Potency": "inactive"}
{"smiles": "CCN(CC)CCCC(C)Nc1ccnc2cc(Cl)ccc12", "note": "(centres undefined)", "Potency": "inconclusive [inhibitor, single point]"}
